Experimental data from PMC8402715 (Viruses, 2021).

System: FLUAV-infected RPE cells
Experiment: Metabolomics of polar metabolites in media of FLUAV-infected RPE cells
Settings: FLUAV-infected RPE cells (moi 1), 10 μM, 24 h

`CCOC(=O)C1=C(COCCN)NC(C)=C(C(=O)OC)C1c1ccccc1Cl` (stereo not shown) [amlodipine, Amlodipine] was tested, and the “levels of inosine and D-ribose 5-phosphate in the media” value was “substantially elevated”.
